# In the supplement of paper PMC8728848:
# This is one part of the list.
# B1: OGAA (protein)
# chain: MVQKESQATLEERESELSSNPAASAGASLEPPAAPAPGEDNPAGAGGAAVAGAAGGARRFLCGVVEGFYGRPWVMEQRKELFRRLQKWELNTYLYAPKDDYKHRMFWREMYSVEEAEQLMTLISAAREYEIEFIYAISPGLDITFSNPKEVSTLKRKLDQVSQFGCRSFALLFADIDHNMCAADKEVFSSFAHAQVSITNEIYQYLGEPETFLFCPTEYCGTFCYPNVSQSPYLRTVGEKLLPGIEVLWTGPKVVSKEIPVESIEEVSKIIKRAPVIWDNIHANDYDQKRLFLGPYKGRSTELIPRLKGVLTNPNCEFEANYVAIHTLATWYKSNMNGVRKDVVMTDSEDSTVSIQIKLENEGSDEDIETDVLYSPQMALKLALTEWLQEFGVPHQY
# Key:
# Test in all cases: glycan array binding signal (z-score within array); higher = stronger binding
# Conditions in all cases: glycan notation: IUPAC condensed, linker removed
# [1] = molecular target: Gal(b1-4)GlcNAc(b1-3)Gal(b1-4)GlcNAc(b1-2)[Gal(b1-4)GlcNAc(b1-3)Gal(b1-4)GlcNAc(b1-6)]Man(a1-6)[Gal(b1-4)GlcNAc(b1-3)Gal(b1-4)GlcNAc(b1-2)Man(a1-3)]Man(b1-4)GlcNAc(b1-4)GlcNAc
# In short: (§1)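 From the Consortium for Functional Glycomics database, 3228 arrays were curated, keeping only those whose protein sequence was available. Binding is given as a within-array Z-score averaged across arrays sharing a protein sequence and across linkers. Negative Z-scores can be read as non-binding.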
# [2] = molecular target: Gal(b1-4)GlcNAc(b1-3)Gal(b1-4)GlcNAc(b1-2)[Gal(b1-4)GlcNAc(b1-3)Gal(b1-4)GlcNAc(b1-6)]Man(a1-6)[Gal(b1-4)GlcNAc(b1-3)Gal(b1-4)GlcNAc(b1-2)Man(a1-3)]Man(b1-4)GlcNAc(b1-4)[Fuc(a1-6)]GlcNAc
# In short: as §1
# [3] = molecular target: Gal(b1-4)GlcNAc(b1-3)Gal(b1-4)GlcNAc(b1-3)Gal(b1-4)GlcNAc
# In short: as §1
# [4] = molecular target: Gal(b1-4)GlcNAc(b1-3)Gal(b1-4)GlcNAc(b1-3)Gal(b1-4)GlcNAc(b1-2)Man(a1-3)[Gal(b1-4)GlcNAc(b1-3)Gal(b1-4)GlcNAc(b1-3)Gal(b1-4)GlcNAc(b1-2)Man(a1-6)]Man(b1-4)GlcNAc(b1-4)GlcNAc
# In short: as §1
# [5] = molecular target: Gal(b1-4)GlcNAc(b1-3)Gal(b1-4)GlcNAc(b1-3)Gal(b1-4)GlcNAc(b1-2)Man(a1-3)[Gal(b1-4)GlcNAc(b1-3)Gal(b1-4)GlcNAc(b1-3)Gal(b1-4)GlcNAc(b1-2)Man(a1-6)]Man(b1-4)GlcNAc(b1-4)[Fuc(a1-6)]GlcNAc
# In short: as §1
# [6] = molecular target: Gal(b1-4)GlcNAc(b1-3)Gal(b1-4)GlcNAc(b1-3)Gal(b1-4)GlcNAc(b1-2)[Gal(b1-4)GlcNAc(b1-3)Gal(b1-4)GlcNAc(b1-3)Gal(b1-4)GlcNAc(b1-6)]Man(a1-6)[Gal(b1-4)GlcNAc(b1-3)Gal(b1-4)GlcNAc(b1-3)Gal(b1-4)GlcNAc(b1-2)Man(a1-3)]Man(b1-4)GlcNAc(b1-4)[Fuc(a1-6)]GlcNAc
# In short: as §1
# [7] = molecular target: Gal(b1-4)GlcNAc(b1-3)Gal(b1-4)GlcNAc(b1-3)Gal(b1-4)GlcNAc(b1-3)Gal(b1-4)GlcNAc(b1-2)Man(a1-3)[Gal(b1-4)GlcNAc(b1-3)Gal(b1-4)GlcNAc(b1-3)Gal(b1-4)GlcNAc(b1-3)Gal(b1-4)GlcNAc(b1-2)Man(a1-6)]Man(b1-4)GlcNAc(b1-4)GlcNAc
# In short: as §1
# [8] = molecular target: Gal(b1-4)GlcNAc(b1-3)Gal(b1-4)GlcNAc(b1-3)Gal(b1-4)GlcNAc(b1-3)Gal(b1-4)GlcNAc(b1-2)Man(a1-3)[Gal(b1-4)GlcNAc(b1-3)Gal(b1-4)GlcNAc(b1-3)Gal(b1-4)GlcNAc(b1-3)Gal(b1-4)GlcNAc(b1-2)Man(a1-6)]Man(b1-4)GlcNAc(b1-4)[Fuc(a1-6)]GlcNAc
# In short: as §1
# [9] = molecular target: Gal(b1-4)GlcNAc(b1-3)Gal(b1-4)GlcNAc(b1-3)Gal(b1-4)GlcNAc(b1-3)Gal(b1-4)GlcNAc(b1-2)[Gal(b1-4)GlcNAc(b1-3)Gal(b1-4)GlcNAc(b1-3)Gal(b1-4)GlcNAc(b1-3)Gal(b1-4)GlcNAc(b1-6)]Man(a1-6)[Gal(b1-4)GlcNAc(b1-3)Gal(b1-4)GlcNAc(b1-3)Gal(b1-4)GlcNAc(b1-3)Gal(b1-4)GlcNAc(b1-2)Man(a1-3)]Man(b1-4)GlcNAc(b1-4)[Fuc(a1-6)]GlcNAc
# In short: as §1
# [10] = molecular target: Gal(b1-4)GlcNAc(b1-3)Gal(b1-4)GlcNAc(b1-3)Gal(b1-4)GlcNAc(b1-3)Gal(b1-4)GlcNAc(b1-3)Gal(b1-4)GlcNAc(b1-2)Man(a1-3)[Gal(b1-4)GlcNAc(b1-3)Gal(b1-4)GlcNAc(b1-3)Gal(b1-4)GlcNAc(b1-3)Gal(b1-4)GlcNAc(b1-3)Gal(b1-4)GlcNAc(b1-2)Man(a1-6)]Man(b1-4)GlcNAc(b1-4)GlcNAc
# In short: as §1
# [11] = molecular target: Gal(b1-4)GlcNAc(b1-3)Gal(b1-4)GlcNAc(b1-3)Gal(b1-4)GlcNAc(b1-3)Gal(b1-4)GlcNAc(b1-3)Gal(b1-4)GlcNAc(b1-2)Man(a1-3)[Gal(b1-4)GlcNAc(b1-3)Gal(b1-4)GlcNAc(b1-3)Gal(b1-4)GlcNAc(b1-3)Gal(b1-4)GlcNAc(b1-3)Gal(b1-4)GlcNAc(b1-2)Man(a1-6)]Man(b1-4)GlcNAc(b1-4)[Fuc(a1-6)]GlcNAc
# In short: as §1
# [12] = molecular target: Gal(b1-4)GlcNAc(b1-3)Gal(b1-4)GlcNAc(b1-3)Gal(b1-4)GlcNAc(b1-3)Gal(b1-4)GlcNAc(b1-3)Gal(b1-4)GlcNAc(b1-2)[Gal(b1-4)GlcNAc(b1-3)Gal(b1-4)GlcNAc(b1-3)Gal(b1-4)GlcNAc(b1-3)Gal(b1-4)GlcNAc(b1-3)Gal(b1-4)GlcNAc(b1-6)]Man(a1-6)[Gal(b1-4)GlcNAc(b1-3)Gal(b1-4)GlcNAc(b1-3)Gal(b1-4)GlcNAc(b1-3)Gal(b1-4)GlcNAc(b1-3)Gal(b1-4)GlcNAc(b1-2)Man(a1-3)]Man(b1-4)GlcNAc(b1-4)[Fuc(a1-6)]GlcNAc
# In short: as §1
# [13] = molecular target: Gal(b1-4)GlcNAc(b1-3)Gal(b1-4)GlcNAc(b1-3)Gal(b1-4)GlcNAc(b1-3)Gal(b1-4)GlcNAc(b1-3)Gal(b1-4)GlcNAc(b1-3)Gal(b1-4)GlcNAc(b1-2)Man(a1-3)[Gal(b1-4)GlcNAc(b1-3)Gal(b1-4)GlcNAc(b1-3)Gal(b1-4)GlcNAc(b1-3)Gal(b1-4)GlcNAc(b1-3)Gal(b1-4)GlcNAc(b1-3)Gal(b1-4)GlcNAc(b1-2)Man(a1-6)]Man(b1-4)GlcNAc(b1-4)GlcNAc
# In short: as §1
# [14] = molecular target: Gal(b1-4)GlcNAc(b1-3)Gal(b1-4)GlcNAc(b1-3)GalNAc
# In short: as §1
# [15] = molecular target: Gal(b1-4)GlcNAc(b1-3)Gal(b1-4)GlcNAc(b1-3)[Gal(b1-4)GlcNAc(b1-3)Gal(b1-4)GlcNAc(b1-6)]GalNAc
# In short: as §1
# [16] = molecular target: Gal(b1-4)GlcNAc(b1-3)Gal(b1-4)GlcNAc(b1-6)[Gal(b1-3)]GalNAc
# In short: as §1
# [17] = molecular target: Gal(b1-4)GlcNAc(b1-3)Gal(b1-4)[Fuc(a1-3)]GlcNAc(b1-3)Gal(b1-4)[Fuc(a1-3)]GlcNAc
# In short: as §1
# [18] = molecular target: Gal(b1-4)GlcNAc(b1-3)GalNAc
# In short: as §1
# [19] = molecular target: Gal(b1-4)GlcNAc(b1-3)[Fuc(a1-3)GlcNAc(b1-6)]Gal(b1-4)Glc
# In short: as §1
# [20] = molecular target: Gal(b1-4)GlcNAc(b1-3)[Gal(b1-4)GlcNAc(b1-6)]Gal(b1-4)GlcNAc
# In short: as §1
# [21] = molecular target: Gal(b1-4)GlcNAc(b1-3)[GlcNAc(b1-6)]Gal(b1-4)GlcNAc
# In short: as §1
# [22] = molecular target: Gal(b1-4)GlcNAc(b1-6)Gal(b1-4)GlcNAc
# In short: as §1
binder,measurement,setting,value
B1,glycan array binding signal (z-score),[1],-0.077
same,glycan array binding signal (z-score),[2],0.002
same,glycan array binding signal (z-score),[3],-0.099
same,glycan array binding signal (z-score),[4],-0.045
same,glycan array binding signal (z-score),[5],-0.013
same,glycan array binding signal (z-score),[6],-0.002
same,glycan array binding signal (z-score),[7],-0.04
same,glycan array binding signal (z-score),[8],-0.067
same,glycan array binding signal (z-score),[9],-0.072
same,glycan array binding signal (z-score),[10],-0.014
same,glycan array binding signal (z-score),[11],-0.04
same,glycan array binding signal (z-score),[12],0.078
same,glycan array binding signal (z-score),[13],0.017
same,glycan array binding signal (z-score),[14],-0.081
same,glycan array binding signal (z-score),[15],-0.071
same,glycan array binding signal (z-score),[16],-0.055
same,glycan array binding signal (z-score),[17],-0.086
same,glycan array binding signal (z-score),[18],-0.07
same,glycan array binding signal (z-score),[19],-0.092
same,glycan array binding signal (z-score),[20],-0.106
same,glycan array binding signal (z-score),[21],-0.128
same,glycan array binding signal (z-score),[22],-0.136
